# This is one part of the list. Shown are side measurements of this screen, not its main read-out; they come without a call. For some assays here: The list favours compounds with an active or inconclusive main result. For some assays here: Words in brackets tell the shape of the fitted curve; partial curves, single points and poor fits give uncertain potencies.
# Experiments:
# [1] = qHTS Assay for Lipid Storage Modulators (AID 1519); settings: Drosophila S3 cells, BODIPY lipid droplet/cell ratio, laser cytometry, cells loaded with oleic acid
# Procedure, shortened: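 Cells seeded at 5,000 per well were treated with compounds over a concentration series and loaded with oleic acid (400 uM, as added). Lipid droplet fluorescence (488 nm excitation, 500-530 nm channel) was read by laser-scanning cytometry and normalized to 20 uM Triacsin C.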
# [2] = qHTS Assay for Modulators of Human Peripheral Myelin Protein 22 (PMP22) Expression/Activity (AID 1967); settings: Cell-based PMP22 reporter, dual-color luciferase ratio; measured here: red reporter channel AC50; EF-alpha promoter control reporter in MSC80 mouse Schwann cells
# Procedure, shortened: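 Luminescence ratio of Pmp22 promoter-driven green luciferase to EF-alpha-driven red luciferase, in engineered mouse MSC80 Schwann cells, served as read-out. Compounds were incubated 24h; untreated cells defined 0% Activity; curves were classified by r2, magnitude and activity.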
# [3] = qHTS for identification of novel therapeutic agents for treatment of microphthalmiaassociated transcription factor (MiT) renal cell carcinoma (RCC) (AID 1963991); settings: CellTiter-Glo, 48 h; for z-score: stronger effect = lower value
# Procedure, shortened: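 Three TFE3-fusion RCC cell lines (UOK109, UOK124, UOK145), 500 cells/well, were exposed to the 1912-compound MIPE 4.0 library for 48 hours at 37 C. Viability was read by CellTiter-Glo luminescence, normalised to DMSO (100%) and empty wells (0%), with 11-concentration curve fits.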
# [4] = target: Histamine N-methyltransferase (Homo sapiens) (UniProt P50135); assay: Confirmatory Screen for Target Class Profiling of Small Molecule Inhibitors of Methyltransferases (AID 1745852); settings: MTase-Glo luminescence, SAH detection, recombinant enzyme; measured here: HNMT inhibition potency;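 also: inhibitor potency for blocking SAH production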
# Sequence of UniProt P50135 (P50135 whole entry, looked up): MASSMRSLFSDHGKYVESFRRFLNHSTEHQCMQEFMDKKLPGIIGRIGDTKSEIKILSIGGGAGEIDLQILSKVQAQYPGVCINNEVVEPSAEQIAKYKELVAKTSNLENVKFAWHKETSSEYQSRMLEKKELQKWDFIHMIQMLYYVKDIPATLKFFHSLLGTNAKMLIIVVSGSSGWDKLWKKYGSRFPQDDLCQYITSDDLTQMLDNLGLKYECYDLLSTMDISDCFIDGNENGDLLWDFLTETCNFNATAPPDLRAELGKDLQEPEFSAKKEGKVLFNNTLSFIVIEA
# [5] = S16 Schwann cell PMP22 intronic element beta-lactamase assay (AID 624044); settings: S16 rat Schwann cells, PMP22 element beta-lactamase FRET, 24 h; measured here: 460 nm blue channel; also: nearly all actives have a fitted effect of over 15% in size
# Procedure, shortened: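 Beta-lactamase reporter under a PMP22 intronic regulatory element in stable S16 rat Schwann cells; 24 h compound exposure. 460 nm blue signal normalized between DMSO (0%) and potassium clavulanate, with 535 nm FRET tracking viability; curves classed by r2 and response.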
# [6] = A High-Content qHTS Against Drug Library for the Identification of Small Molecules that Inhibit DYT1 Early Onset Primary Dystonia-Associated Cell Pathology (AID 1645839); settings: HEK293 Flp-In EGFP-delE TorsinA, punctate imaging, 48 h; measured here: cell count cytotoxicity
# Procedure, shortened: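 Induced EGFP-delE TorsinA cells are imaged after 48 h of compound treatment. Punctate fusion-protein distribution gives the %pathology value, while nuclei counts flag toxicity. Wild-type EGFP-hTOR1A cells define the normal pattern.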
# [7] = qHTS Assay for Inhibitors of PDE-IV (AID 607); settings: HEK293 ACTOne CNG channel cells, membrane potential fluorescence; measured here: parental cell counter-screen;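 also: parental cells stimulated with forskolin 10 µM plus RO 20-1724 100 µM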
# Procedure, shortened: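 ACTOne HEK293 cells carry a modified cAMP-gated CNG channel and express endogenous PDE4; plated 1000 cells/well, compounds up to 22.9 uM final. Membrane-potential dye fluorescence (ex 535/em 590) was read; parental cells received 10 uM forskolin + 100 uM RO 20-1724.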
# [8] = qHTS Validation Assay to Find Inhibitors of Chronic Active B-Cell Receptor Signaling (AID 485345); settings: ABC-DLBCL cells, chronic BCR signaling reporter; measured here: CBR control luciferase (viability counter)
# Procedure, shortened: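 TMD8 ABC-DLBCL cells with dox-inducible green luciferase–IκBα fusion and red native luciferase; compounds 46 uM–3 nM, 4 h at 37C with doxycycline in 0.5% FBS IMDM. Green/red ratio normalized to basal and 10 uM MG-132.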
# [9] = qHTS drug screen for cell cycle checkpoint inhibitors in PARPi-resistant BRCA-mutant ovarian cancer cell lines. (AID 1963452); settings: PEO1/OlaR viability, CellTiter-Glo luminescence, 96 h; measured here: PEO4 viability
# Procedure, shortened: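 PEO1, PEO4 and PEO1/OlaR ovarian cancer cells, 600 per well, exposed 96 h at 37C to a dilution series. Viability read by CellTiter-Glo luminescence, normalized to DMSO and empty wells; activity summarized as Z-AUC.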
# [10] = measured here: cell count channel max response
# [11] = measured here: lipid channel max response
# [12] = TFE3-RCC UOK109 viability, measured here: UOK109 Z-AUC
# [13] = TFE3-RCC viability, measured here: UOK124 Z-AUC
# [14] = TFE3-RCC viability, measured here: UOK145 Z-AUC
# [15] = TFE3-RCC viability, measured here: UOK124 cell viability
# Tags tell the direction and shape of the fitted curve.
structure (smiles),measurement,setting,value
CN(C)C(N)=NCCC[C@H](N)C(=O)O,max response,[1]; [10],48.3%
same,max response,[1]; [11],51.9%
same,AC50,[2],"95.3 µM [falling, single point]"
CC(COc1ccccc1)N(CCCl)Cc1ccccc1 (stereo not drawn),max response,[1]; [10],47.9%
same,max response,[1]; [11],49.6%
same,z-score,[3]; [12],0.496
same,z-score,[3]; [13],0.687
same,z-score,[3]; [14],-1.95
CCN(CC)CCCC(C)Nc1ccnc2cc(Cl)ccc12 (stereo not drawn),max response,[1]; [10],47.7%
same,max response,[1]; [11],46.5%
same,IC50,[4],"1.36 µM [falling, partial curve]"
same,z-score,[3]; [12],-0.689
same,z-score,[3]; [13],0.768
same,z-score,[3]; [14],-0.0305
same,AC50,"[3]; TFE3-RCC viability, measured here: UOK145 cell viability","10.5 µM [falling, partial curve, poor fit]"
CCCCNc1ccc(C(=O)OCCN(C)C)cc1,max response,[1]; [10],-19.2%
same,max response,[1]; [11],-16.5%
same,AC50,[2],"3.01 µM [rising, full curve]"
same,AC50,[5],"6 µM [falling, partial curve, poor fit]"
same,AC50,[6],"20 µM [falling, single point]"
Cc1cccc(CN2CCN(C(c3ccccc3)c3ccc(Cl)cc3)CC2)c1 (stereo not drawn),max response,[1]; [10],-15.6%
same,max response,[1]; [11],-80.1%
same,AC50,[6],"22.4 µM [falling, single point]"
same,z-score,[3]; [12],0.747
same,z-score,[3]; [13],0.338
same,AC50,[3]; [15],"26.4 µM [falling, partial curve, poor fit]"
same,z-score,[3]; [14],-0.0667
CN(C)CCC=C1c2ccccc2C=Cc2ccccc21,AC50,[7],"10 µM [rising, single point]"
same,max response,[1]; [10],57.4%
same,max response,[1]; [11],59%
same,AC50,[8],"18.4 µM [falling, single point]"
same,AC50,[6],"35.5 µM [falling, single point]"
same,IC50,[4],"19.3 µM [falling, partial curve]"
same,AC50,[9],"13.8 µM [falling, single point]"
same,z-score,[3]; [12],0.635
same,z-score,[3]; [13],0.08
same,AC50,[3]; [15],"14.8 µM [falling, single point]"
same,z-score,[3]; [14],0.688
